Test results taken from the supplement of paper PMC8728848.
The other results are listed elsewhere or left out.

Columns and labels:
Assay in all cases: glycan array binding signal (z-score within array); higher = stronger binding
Details in all cases: glycan notation: IUPAC condensed, linker removed
Fuc(b1-3)GlcNAc = target: Fuc(b1-3)GlcNAc
Summary of the method: (§1)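 Glycan array data came from 3228 arrays in the Consortium for Functional Glycomics database, and only arrays with an available protein sequence were kept. Glycan names were put into IUPAC-condensed notation, and columns mapping to the same glycan were averaged. The binding signal is a within-array Z-score, averaged across arrays of one protein sequence run at different concentrations or buffers and across linkers. A negative Z-score can be read as non-binding.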

Gal(a1-2)Gal = target: Gal(a1-2)Gal
Summary of the method: as §1

Gal(a1-3)Gal = target: Gal(a1-3)Gal
Summary of the method: as §1

Gal(a1-3)Gal(b1-3)Glc = target: Gal(a1-3)Gal(b1-3)Glc
Summary of the method: as §1

Gal(a1-3)Gal(b1-3)GlcNAc = target: Gal(a1-3)Gal(b1-3)GlcNAc
Summary of the method: as §1

[1] = target: Gal(a1-3)Gal(b1-3)GlcNAc(b1-2)Man
Summary of the method: as §1

[2] = target: Gal(a1-3)Gal(b1-3)GlcNAc(b1-2)Man(a1-3)[Gal(a1-3)Gal(b1-3)GlcNAc(b1-2)Man(a1-6)]Man(b1-4)GlcNAc(b1-4)GlcNAc
Summary of the method: as §1

[3] = target: Gal(a1-3)Gal(b1-3)GlcNAc(b1-3)GalNAc
Summary of the method: as §1

[4] = target: Gal(a1-3)Gal(b1-3)GlcNAc(b1-6)GalNAc
Summary of the method: as §1

[5] = target: Gal(a1-3)Gal(b1-3)[Fuc(a1-4)]GlcNAc(b1-2)Man(a1-3)[Gal(a1-3)Gal(b1-3)[Fuc(a1-4)]GlcNAc(b1-2)Man(a1-6)]Man(b1-4)GlcNAc(b1-4)GlcNAc
Summary of the method: as §1

Gal(a1-3)Gal(b1-4)Glc = target: Gal(a1-3)Gal(b1-4)Glc
Summary of the method: as §1

Gal(a1-3)Gal(b1-4)GlcNAc = target: Gal(a1-3)Gal(b1-4)GlcNAc
Summary of the method: as §1

[6] = target: Gal(a1-3)Gal(b1-4)GlcNAc(b1-2)Man
Summary of the method: as §1

[7] = target: Gal(a1-3)Gal(b1-4)GlcNAc(b1-2)Man(a1-3)[Gal(a1-3)Gal(b1-4)GlcNAc(b1-2)Man(a1-6)]Man(b1-4)GlcNAc(b1-4)GlcNAc
Summary of the method: as §1

[8] = target: Gal(a1-3)Gal(b1-4)GlcNAc(b1-3)GalNAc
Summary of the method: as §1

[9] = target: Gal(a1-3)Gal(b1-4)GlcNAc(b1-6)GalNAc
Summary of the method: as §1

[10] = target: Gal(a1-3)Gal(b1-4)[Fuc(a1-3)]GalNAc
Summary of the method: as §1

[11] = target: Gal(a1-3)Gal(b1-4)[Fuc(a1-3)]GlcNAc
Summary of the method: as §1

[12] = target: Gal(a1-3)Gal(b1-4)[Fuc(a1-3)]GlcNAc(b1-2)Man(a1-3)[Gal(a1-3)Gal(b1-4)[Fuc(a1-3)]GlcNAc(b1-2)Man(a1-6)]Man(b1-4)GlcNAc(b1-4)GlcNAc
Summary of the method: as §1

Gal(a1-3)GalNAc = target: Gal(a1-3)GalNAc
Summary of the method: as §1

Gal(a1-3)GlcNAc = target: Gal(a1-3)GlcNAc
Summary of the method: as §1

[13] = target: Gal(a1-3)[Gal(a1-4)]Gal(b1-4)GlcNAc
Summary of the method: as §1

[14] = target: Gal(a1-4)Gal(b1-3)GlcNAc(b1-2)Man(a1-3)[Gal(a1-4)Gal(b1-3)GlcNAc(b1-2)Man(a1-6)]Man(b1-4)GlcNAc(b1-4)GlcNAc
Summary of the method: as §1

Gal(a1-4)Gal(b1-4)Gal = target: Gal(a1-4)Gal(b1-4)Gal
Summary of the method: as §1

Gal(a1-4)Gal(b1-4)GalNAc = target: Gal(a1-4)Gal(b1-4)GalNAc
Summary of the method: as §1

Gal(a1-4)Gal(b1-4)Glc = target: Gal(a1-4)Gal(b1-4)Glc
Summary of the method: as §1

Gal(a1-4)Gal(b1-4)GlcNAc = target: Gal(a1-4)Gal(b1-4)GlcNAc
Summary of the method: as §1

[15] = target: Gal(a1-4)Gal(b1-4)GlcNAc(b1-2)Man(a1-3)[Gal(a1-4)Gal(b1-4)GlcNAc(b1-2)Man(a1-6)]Man(b1-4)GlcNAc(b1-4)GlcNAc
Summary of the method: as §1

[16] = target: Gal(a1-4)Gal(b1-4)GlcNAc(b1-3)Gal(b1-4)Glc
Summary of the method: as §1

Gal(a1-4)GlcNAc = target: Gal(a1-4)GlcNAc
Summary of the method: as §1

Gal(a1-6)Glc = target: Gal(a1-6)Glc
Summary of the method: as §1

Gal(b1-2)Gal = target: Gal(b1-2)Gal
Summary of the method: as §1

Gal(b1-3)Gal = target: Gal(b1-3)Gal
Summary of the method: as §1

Gal(b1-3)Gal(b1-4)GlcNAc = target: Gal(b1-3)Gal(b1-4)GlcNAc
Summary of the method: as §1

Gal(b1-3)GalNAc = target: Gal(b1-3)GalNAc
Summary of the method: as §1

[17] = target: Gal(b1-3)GalNAc(a1-3)[Fuc(a1-2)]Gal(b1-4)Glc
Summary of the method: as §1

[18] = target: Gal(b1-3)GalNAc(a1-3)[Fuc(a1-2)]Gal(b1-4)GlcNAc
Summary of the method: as §1

B1: Epa15 (Candida glabrata) (protein)
chain: MGSSHHHHHHSSGLVPRGSHMASDPTTFPLGCSPEFTKTKKGLSMELYRYDYLPPGSYPCWDSAYLNPSYPRTGYKAKKLIATVDGVSGDINFKFNPKFGCKAIPDYLPSNFNYHEPITITNFTMILYGYFMPKTTAFHTFYVTADDLLFMNFGAGNAFDCCRREETADKFGNYAAYSVWGKKSLKNELTVYLHTGVYYPIRLFYNNRDYIAQLDIRFKTEHSNAIITNFTDYFYSVDDSSLGCPGLI
- glycan array binding signal (z-score) (Fuc(b1-3)GlcNAc): -0.493
- glycan array binding signal (z-score) (Gal(a1-2)Gal): -0.455
- glycan array binding signal (z-score) (Gal(a1-3)Gal): 0.122
- glycan array binding signal (z-score) (Gal(a1-3)Gal(b1-3)Glc): -0.283
- glycan array binding signal (z-score) (Gal(a1-3)Gal(b1-3)GlcNAc): -0.097
- glycan array binding signal (z-score) [1]: 1.8
- glycan array binding signal (z-score) [2]: 0.477
- glycan array binding signal (z-score) [3]: 0.478
- glycan array binding signal (z-score) [4]: 0.468
- glycan array binding signal (z-score) [5]: 1.85
- glycan array binding signal (z-score) (Gal(a1-3)Gal(b1-4)Glc): 0.031
- glycan array binding signal (z-score) (Gal(a1-3)Gal(b1-4)GlcNAc): 0.059
- glycan array binding signal (z-score) [6]: 0.183
- glycan array binding signal (z-score) [7]: 1.1
- glycan array binding signal (z-score) [8]: -0.396
- glycan array binding signal (z-score) [9]: -0.059
- glycan array binding signal (z-score) [10]: -0.284
- glycan array binding signal (z-score) [11]: 0.346
- glycan array binding signal (z-score) [12]: 1.08
- glycan array binding signal (z-score) (Gal(a1-3)GalNAc): 0.105
- glycan array binding signal (z-score) (Gal(a1-3)GlcNAc): -0.278
- glycan array binding signal (z-score) [13]: 0.6
- glycan array binding signal (z-score) [14]: 0.999
- glycan array binding signal (z-score) (Gal(a1-4)Gal(b1-4)Gal): -0.273
- glycan array binding signal (z-score) (Gal(a1-4)Gal(b1-4)GalNAc): -0.255
- glycan array binding signal (z-score) (Gal(a1-4)Gal(b1-4)Glc): 0.168
- glycan array binding signal (z-score) (Gal(a1-4)Gal(b1-4)GlcNAc): 0.525
- glycan array binding signal (z-score) [15]: -0.001
- glycan array binding signal (z-score) [16]: -0.118
- glycan array binding signal (z-score) (Gal(a1-4)GlcNAc): 0.35
- glycan array binding signal (z-score) (Gal(a1-6)Glc): -0.18
- glycan array binding signal (z-score) (Gal(b1-2)Gal): -0.012
- glycan array binding signal (z-score) (Gal(b1-3)Gal): 0.79
- glycan array binding signal (z-score) (Gal(b1-3)Gal(b1-4)GlcNAc): 0.625
- glycan array binding signal (z-score) (Gal(b1-3)GalNAc): 0.487
- glycan array binding signal (z-score) [17]: 0.181
- glycan array binding signal (z-score) [18]: -0.431
